The record followed here is paper PMC7684313, “In vitro and in vivo pharmacological activity of minor cannabinoids isolated from Cannabis sativa” (Scientific Reports, 2020).

This test relates to hCB1R and hCB2R.

Take `CCCCCc1cc2c(c(O)c1C(=O)O)[C@@H]1C=C(C)CC[C@H]1C(C)(C)O2` [∆^9-THCa, ∆^9-tetrahydrocannabinolic acid]: the “selectivity between hCB1R and hCB2R, in words” value is “hCB2R-selective”.
